B1: tRNA (parent)
chain: CUCUCGGUAGCCAAGUUGGUUUAAGGCGCAAGACUUUAAUUUAUCACUACGAAAUCUUGAGAUCGGGCGUUCGACUCGCCCCCGGGAGAUUUUUUCCUCGAGCAA

Variants at the floor of the assay are shown more often than the library holds them.

The data set covers variants of B1. The data set is described as follows: nonsense suppression (GFP-seq) (ratio to wild type); higher = more function; SUP4oc tRNA, yeast GFP reporter sort-seq. The method in brief: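 Yeast were grown in raffinose/galactose medium with 80 mg/L adenine, each strain bearing a genome-integrated ochre-suppressor tRNA variant from a ~3% random-mutation library, a galactose-driven GFP ochre reporter, and RFP. After sorting into GFP/RFP bins, every bin was sequenced on an Illumina platform at phred ≥30. The GFPSEQ value, a measure of nonsense suppression, is the weighted bin median GFP/RFP relative to the unmutated parent tRNA, using each variant's estimated cell share per bin as the weight. Only variants with ≥100 reads and ≥30 cells were included.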
A24C G26U G86C: the nonsense suppression is ≤ 0.026.

Take A24C G84A A87G: the nonsense suppression was ≤ 0.026.

For the variant U2C U8C A23G C56U G65C, the nonsense suppression is ≤ 0.026.

For the variant G15A U17A U35G C56U U63C G85C, the nonsense suppression is ≤ 0.026.

Regarding U2G A31C C75A, the nonsense suppression is ≤ 0.026.

For the variant C64U C83A A87G, the nonsense suppression was ≤ 0.026.

As to C3A A24U G25C, the nonsense suppression was ≤ 0.026.

On to U2C C68U A87G, for which the nonsense suppression stood at 1.13.

As to U2G U20A U63C U76C, the nonsense suppression was ≤ 0.026.

Consider G10C A33G, for which the nonsense suppression was ≤ 0.026.

U4C C27A C72G: the nonsense suppression was ≤ 0.026.

In the case of A54C U55C, the nonsense suppression was ≤ 0.026.

Turning to C5G C56U C79A, the nonsense suppression was ≤ 0.026.

U17C A60G: the nonsense suppression amounted to 0.411.

Turning to U58G U63A C79A, the nonsense suppression is ≤ 0.026.

Regarding C3A A62U C64G U76G, the nonsense suppression is ≤ 0.026.

G18U U21A U57G: the nonsense suppression is ≤ 0.026.

Take U55A C82A: the nonsense suppression was ≤ 0.026.

For C1U U4C U76A, the nonsense suppression was ≤ 0.026.

Regarding C79U G86C, the nonsense suppression worked out at 0.0687.

Consider C5U C34A, for which the nonsense suppression was ≤ 0.026.

Take G65A G67C: the nonsense suppression was ≤ 0.026.

For U22C C29U A30C A33G G86A A87U, the nonsense suppression was ≤ 0.026.

As for U20G C29U U57A C68G, the nonsense suppression was ≤ 0.026.

With A30C U63C, the nonsense suppression is ≤ 0.026.

A9G C75U U76C G78C C80U G88A: the nonsense suppression was ≤ 0.026.

On to U4C G78U, for which the nonsense suppression amounted to 1.12.

As to U2C A9G G84A, the nonsense suppression is ≤ 0.026.

In the case of C3U A24U G28A, the nonsense suppression is ≤ 0.026.

Turning to C3G G61U G67C, the nonsense suppression is ≤ 0.026.

For the variant C80G C83U, the nonsense suppression was ≤ 0.026.

For the variant C27U C80U, the nonsense suppression stood at 0.0446.

Take C11U C12G A89U: the nonsense suppression is ≤ 0.026.

Regarding C29G C75U U76A, the nonsense suppression is ≤ 0.026.

Turning to U58G C72A U76C, the nonsense suppression was ≤ 0.026.

Take C3A U16G G84U: the nonsense suppression was ≤ 0.026.

Regarding G59U G65C U71G C77G, the nonsense suppression was ≤ 0.026.

Consider A14C U58G, for which the nonsense suppression was ≤ 0.026.

For A23G C29U A87G, the nonsense suppression was ≤ 0.026.

For G10C C11U G25C U63C, the nonsense suppression is ≤ 0.026.

Consider U58G C79G A89G, for which the nonsense suppression is ≤ 0.026.

With G73C G78C G88U, the nonsense suppression is ≤ 0.026.

As to A30C G61U G66U U70G C79A A89G, the nonsense suppression was ≤ 0.026.

As to A30C C75G G88U, the nonsense suppression is ≤ 0.026.

As for G28U U57A U76G, the nonsense suppression is ≤ 0.026.

In the case of A24U C27U A30U C77U, the nonsense suppression was ≤ 0.026.

As for A24U A60U, the nonsense suppression turned out to be 0.0572.

As to U2C G7C G26U U70A, the nonsense suppression was ≤ 0.026.

For the variant G7C A24U U57A, the nonsense suppression is ≤ 0.026.

In the case of A24U C27A G88A, the nonsense suppression is ≤ 0.026.

Consider G65C A74C C75U, for which the nonsense suppression was ≤ 0.026.

As for U2A C12U G28C A74C, the nonsense suppression was ≤ 0.026.

Turning to U8C G61A C80U, the nonsense suppression is ≤ 0.026.

In the case of A13G A30C, the nonsense suppression was ≤ 0.026.

With U4C C68A, the nonsense suppression is ≤ 0.026.

With G26A A30U, the nonsense suppression was ≤ 0.026.

Turning to C12G C83A G84U, the nonsense suppression was ≤ 0.026.

C27U A30C: the nonsense suppression is ≤ 0.026.

On to C5A C12U A14G A62G, for which the nonsense suppression was ≤ 0.026.

Consider G19A A24U C34A, for which the nonsense suppression was ≤ 0.026.

As to C3G C34U, the nonsense suppression is ≤ 0.026.

Turning to U16A A89C, the nonsense suppression is ≤ 0.026.

For C12U G78A, the nonsense suppression is 0.0268.

Consider C3U C12A A14U U16A G84A G88C, for which the nonsense suppression is ≤ 0.026.

With A9G A30U, the nonsense suppression worked out at 0.163.

Regarding G32A U57C U58C C68G, the nonsense suppression was ≤ 0.026.

C29G G61U A89C: the nonsense suppression is ≤ 0.026.

For C11G G84A, the nonsense suppression was ≤ 0.026.

As for U20G G32U U70A, the nonsense suppression is ≤ 0.026.

On to A60G G85U, for which the nonsense suppression was 0.138.

With U8C G10C U17G, the nonsense suppression is ≤ 0.026.

Take U8G C79G: the nonsense suppression is ≤ 0.026.

Take U8A U20A A24C A54G U58G: the nonsense suppression was ≤ 0.026.

Regarding C3G A14C U35G G88C, the nonsense suppression was ≤ 0.026.

Regarding G61U C77G, the nonsense suppression was ≤ 0.026.

On to A14G C34U U35A, for which the nonsense suppression is ≤ 0.026.

With U20A G65A, the nonsense suppression was ≤ 0.026.

In the case of U2C U22C A23U C34U, the nonsense suppression was ≤ 0.026.

Take G10U G15U: the nonsense suppression was ≤ 0.026.

On to G10U C11U A24C, for which the nonsense suppression was ≤ 0.026.

For A23U G25U G69C, the nonsense suppression was ≤ 0.026.

For U22C A24C, the nonsense suppression came to 1.01.

Take U20G U21C C56A G59U G85C: the nonsense suppression was ≤ 0.026.

For U4C A23U U76G, the nonsense suppression is ≤ 0.026.

Turning to A13U G15U G28A U63A, the nonsense suppression was ≤ 0.026.

U70C U71A: the nonsense suppression was ≤ 0.026.

Turning to U4C G18A G85C, the nonsense suppression is ≤ 0.026.

For U2G U16C A24G, the nonsense suppression was ≤ 0.026.

Take C3A G66U A87U: the nonsense suppression is ≤ 0.026.

For G59C C77U, the nonsense suppression was ≤ 0.026.

Regarding U16G G25C U55G, the nonsense suppression is ≤ 0.026.

Consider U20C C29G A31G, for which the nonsense suppression is ≤ 0.026.

For U16G U17A, the nonsense suppression amounted to 1.05.

Take C1A G19U U55A: the nonsense suppression is ≤ 0.026.

Take C3U G6A C11G G19C A54G G67A: the nonsense suppression is ≤ 0.026.

As to U35C G84A, the nonsense suppression was ≤ 0.026.

As for C1A C11G A33C, the nonsense suppression is ≤ 0.026.

As to G10A A30G C64A, the nonsense suppression is ≤ 0.026.

As for G25A A30G U57C U63A, the nonsense suppression is ≤ 0.026.

For C56U U58C C72G, the nonsense suppression was ≤ 0.026.

As for U4A U21G G69C, the nonsense suppression is ≤ 0.026.

As for U2C G84A A89G, the nonsense suppression was ≤ 0.026.

For C3A U76C G78C, the nonsense suppression was ≤ 0.026.

As for C12G G15A C81G, the nonsense suppression is ≤ 0.026.

With U8A U21C A33G C68G C83U, the nonsense suppression was ≤ 0.026.

A14G C56G: the nonsense suppression is ≤ 0.026.

For C56G G61C G73A, the nonsense suppression is ≤ 0.026.

As for A9C G85U, the nonsense suppression amounted to 0.04.

Turning to C72A C80G, the nonsense suppression was ≤ 0.026.

On to C82U G85A, for which the nonsense suppression turned out to be 0.99.

On to C12A G84C, for which the nonsense suppression was ≤ 0.026.

With G59A G73A, the nonsense suppression was ≤ 0.026.

C5U U16G U70G: the nonsense suppression is ≤ 0.026.

For G10U C34G U70A, the nonsense suppression was ≤ 0.026.

Take C56U A87G: the nonsense suppression is ≤ 0.026.

Take C5U U8A A9G C34A: the nonsense suppression is ≤ 0.026.

Take C34G A54C: the nonsense suppression was ≤ 0.026.

For the variant C11U G73U C80U, the nonsense suppression is ≤ 0.026.

As for A60G C81G, the nonsense suppression was ≤ 0.026.

Regarding U16G U20C A30C G88U, the nonsense suppression was ≤ 0.026.

For the variant C5A A24G U55A C64U U70G, the nonsense suppression was ≤ 0.026.

Regarding C77G G78A, the nonsense suppression is ≤ 0.026.

As for G25U A87U, the nonsense suppression is ≤ 0.026.

Take G15A A31U A62C: the nonsense suppression is ≤ 0.026.

With G65A U70A, the nonsense suppression was ≤ 0.026.

As for G18A C56A A62G G88C, the nonsense suppression was ≤ 0.026.

Consider G15C C64U, for which the nonsense suppression is ≤ 0.026.

C56G U58C C68G: the nonsense suppression is ≤ 0.026.

For A60G A89U, the nonsense suppression came to 0.0291.

Regarding A9C C77G A89U, the nonsense suppression was ≤ 0.026.

For U4C G32A, the nonsense suppression is ≤ 0.026.

In the case of G25U A54U G78C, the nonsense suppression is ≤ 0.026.

As for U57G C80G, the nonsense suppression was ≤ 0.026.

Turning to G7A G66A, the nonsense suppression was ≤ 0.026.

Regarding A13U C77U, the nonsense suppression was 0.0452.

U17C G66C: the nonsense suppression is ≤ 0.026.

With G59U G86A, the nonsense suppression is ≤ 0.026.

For U57A U76C, the nonsense suppression is ≤ 0.026.

On to G18U G25U U70C, for which the nonsense suppression is ≤ 0.026.

Take A13G G19C U57G: the nonsense suppression is ≤ 0.026.

Consider C3G A24G G59U, for which the nonsense suppression is ≤ 0.026.

For the variant C1U U57A C80A, the nonsense suppression is ≤ 0.026.

As to G69U C80A G88C, the nonsense suppression is ≤ 0.026.

In the case of U22C A54C G67A U76A, the nonsense suppression was ≤ 0.026.

On to U2C C27A G65U, for which the nonsense suppression was ≤ 0.026.

Take G26C A30U G65U: the nonsense suppression was ≤ 0.026.

In the case of C1U U17A U20C U57C G66A U76G, the nonsense suppression was ≤ 0.026.

With A31G G78C, the nonsense suppression was ≤ 0.026.

On to U55G A60U C75A, for which the nonsense suppression was ≤ 0.026.

With U21G G78U, the nonsense suppression stood at 0.034.

On to G15U U58G, for which the nonsense suppression was ≤ 0.026.

Turning to U76C A87G, the nonsense suppression amounted to 0.932.

Consider U70A C80U, for which the nonsense suppression was ≤ 0.026.

In the case of G7C C11A U21G A24U U57C C77G C83A, the nonsense suppression was ≤ 0.026.

Consider C27A G84U, for which the nonsense suppression is ≤ 0.026.

In the case of A9G C11U G28A A30G, the nonsense suppression was ≤ 0.026.

Turning to A24U G28C, the nonsense suppression is ≤ 0.026.

As for A23U A31C, the nonsense suppression is ≤ 0.026.

On to G65C C72A G73U G86U, for which the nonsense suppression is ≤ 0.026.

Turning to U2A C12G A23C C75A, the nonsense suppression was ≤ 0.026.

For A9C A23C, the nonsense suppression is ≤ 0.026.

With U8C A13G C81A, the nonsense suppression is ≤ 0.026.

Regarding G25U G84C, the nonsense suppression was ≤ 0.026.

On to U4A C75A C82U, for which the nonsense suppression was ≤ 0.026.

Turning to U17G A33U G88C, the nonsense suppression is ≤ 0.026.

As to C1U G66U G86A, the nonsense suppression is ≤ 0.026.

In the case of C29A U55G, the nonsense suppression was ≤ 0.026.

(Values after the RNAGym collection of RNA variant scans (doi:10.1101/gad.245936.114).)
